Reference: PubChem BioAssay AID1468 (National Center for Advancing Translational Sciences (NCATS), 2008)
The campaign covered roughly 280,000 compounds. About 1,100 (0.39%) were called active. The inconclusive results got no clear call from the source; some entries with a clear call stand among them for comparison. The call rests on the fitted dose curve; in most records, active means well fitted inhibition curve with a large enough effect; inconclusive means small, poorly fitted or top-dose-only effect, or effect the other way; inactive means flat fitted curve, though single readings scatter. Where the call is inconclusive, the potency comes from a doubtful curve fit.

Each compound was assayed against Microtubule-associated protein tau (Homo sapiens) (UniProt P10636) (assay: qHTS for Inhibitors of Tau Fibril Formation, Fluorescence Polarization). Details: K18 P301L tau heparin fibrillization, Alexa594 FP, 6 h; series mostly up to 57.7 µM; activity, negative = inhibition: at the top concentration.
Procedure, shortened: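 Read-out: fluorescence polarization of Alexa 594-labeled tau (0.24 uM), 555 nm excitation, 632 nm emission. Mixtures held 15 uM unlabeled K18 P301L, compound and 20 uM heparin, pH 7 acetate buffer, incubated 6 hr at 37 C.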
Further: nearly all actives have a fitted effect of over 55% in size.
On the % scale 0 is the no-effect control and ±100 the full control effect; potency means the concentration at half of the fitted maximal effect; tags describe the fitted curve by direction and shape.

UniProt P10636, sequence (P10636 whole entry, looked up): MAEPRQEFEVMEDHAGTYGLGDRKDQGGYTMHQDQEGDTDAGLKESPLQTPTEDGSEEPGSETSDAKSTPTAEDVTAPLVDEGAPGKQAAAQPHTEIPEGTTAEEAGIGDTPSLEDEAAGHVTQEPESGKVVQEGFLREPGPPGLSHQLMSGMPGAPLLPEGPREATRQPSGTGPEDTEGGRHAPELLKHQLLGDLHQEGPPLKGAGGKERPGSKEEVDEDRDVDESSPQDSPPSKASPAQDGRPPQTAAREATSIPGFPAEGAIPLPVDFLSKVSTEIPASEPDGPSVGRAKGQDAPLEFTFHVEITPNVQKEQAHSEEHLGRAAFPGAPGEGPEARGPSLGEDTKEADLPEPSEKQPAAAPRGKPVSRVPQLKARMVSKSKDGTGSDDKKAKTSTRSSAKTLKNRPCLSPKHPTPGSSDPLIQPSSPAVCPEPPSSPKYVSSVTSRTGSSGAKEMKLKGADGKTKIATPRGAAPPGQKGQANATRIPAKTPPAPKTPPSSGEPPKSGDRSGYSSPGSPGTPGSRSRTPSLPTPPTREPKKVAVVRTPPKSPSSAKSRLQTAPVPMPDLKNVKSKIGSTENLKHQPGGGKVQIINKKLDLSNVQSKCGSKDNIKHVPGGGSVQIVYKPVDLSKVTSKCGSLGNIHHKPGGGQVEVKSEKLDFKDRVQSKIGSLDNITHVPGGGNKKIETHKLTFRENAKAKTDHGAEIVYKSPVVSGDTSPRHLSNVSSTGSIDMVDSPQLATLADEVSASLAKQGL

Potency, active:
Cc1ccc(S(=O)(=O)N(C(=O)c2ccco2)c2cc3sc(=O)oc3c3ccccc23)cc1 22.4 µM, Cc1cc(C)nc(/N=c2/ssnc2Cl)c1 8.91 µM, Cc1cccc(NC(=O)Cn2c(=O)c3cccn3c3ccccc32)c1C 17.8 µM, O=C(Nc1cccc(C(F)(F)F)c1)Nc1ccc2snnc2c1 17.8 µM

Potency, inconclusive:
O=C(N/N=C/c1cn(-c2ccccc2)nc1-c1cccs1)c1ccccc1F 7.08 µM [inhibitor, partial curve], CN1C(=O)/C(=C\c2cc(N=Nc3ccccc3)ccc2O)SC1=S 22.4 µM [inhibitor, partial curve], COc1cc(NS(=O)(=O)c2ccc(NC(=S)NC(=O)c3cccs3)cc2)nc(OC)n1 5.01 µM [inhibitor, full curve, poor fit], Cc1c(C(=O)Nc2cccc(-c3nc4ccccc4s3)c2)oc2ccc(F)cc12 31.6 µM [inhibitor, partial curve], N#Cc1cccc(NC(=O)C2CCN(c3nc(-c4ccc(Cl)cc4)no3)CC2)c1 8.91 µM [inhibitor, partial curve], COc1cccc2sc(Nc3nc4ccc(NC(C)=O)cc4s3)nc12 35.5 µM [activator, single point], CCCSc1nc2sc3c(c2c(=O)n1-c1ccc(C)c(Cl)c1)CCN(C(C)=O)C3 2.82 µM [inhibitor, full curve, poor fit], CCn1c(Sc2ccc(N)cc2Cl)nc2ccccc21 14.1 µM [activator, partial curve], Cc1ccc2nc(-c3ccc(NC(=O)CCS(=O)(=O)c4ccccc4)cc3)sc2c1 31.6 µM [inhibitor, single point], CC(=O)c1ccc(N2CCN(C(=S)Nc3ccc(Cl)c(Cl)c3)CC2)cc1 8.91 µM [inhibitor, partial curve], COc1ccc(-c2csc(-c3c(N)c(C(=O)c4ccccc4)n4ccccc34)n2)cc1OC 11.2 µM [activator, partial curve], Cn1c(=O)cc(SCC(=O)N2CCN(Cc3ccc4c(c3)OCO4)CC2)c2ccccc21 31.6 µM [inhibitor, single point], O=S(=O)(Cc1cc(Cl)nc(-c2ccccc2)n1)c1ccccc1 31.6 µM [inhibitor, single point], Cc1cc(S(=O)(=O)Nc2ccc(O)c(Sc3nc4ccccc4s3)c2)ccc1Cl 22.4 µM [inhibitor, partial curve], CC(C)CCNC(=O)C1CCCCN1S(=O)(=O)c1ccc(F)cc1 (stereo not drawn) 0.0891 µM [inhibitor, full curve, poor fit], CCOC(=O)c1cnc2c(C(F)(F)F)cccc2c1Nc1cccc(C(=O)OC)c1 15.8 µM [inhibitor, partial curve, poor fit], CC1Cc2cc(-c3csc(NC(=O)Cc4ccccc4)n3)ccc2N1S(C)(=O)=O (stereo not drawn) 39.8 µM [inhibitor, single point], O=c1[nH]c(NCCO)nc2c1C1(CCCCC1)Cc1ccccc1-2 20 µM [inhibitor, single point], COc1ccc(CNC(=O)c2c(Nc3ccccc3C)sc(C(=O)c3ccccc3)c2N)cc1 22.4 µM [activator, single point], COCCCn1c(O)c(/C=C2\N=C(C#N)C(=Nc3ccc(C)cc3)O2)sc1=S 35.5 µM [inhibitor, single point], O=C(NCCc1ccccc1)Nc1cccc(Cl)c1 0.708 µM [inhibitor, partial curve, poor fit], Cn1cc(/C=C2\SC(=O)N(c3ccc(O)cc3)C2=O)c2ccccc21 39.8 µM [inhibitor, single point], CCOc1ccc(Cl)cc1C1CC(=O)Nc2cc(OC)c(OC)c(OC)c21 (stereo not drawn) 25.1 µM [inhibitor, partial curve, poor fit], CC1(C)CC(=O)C(C=Nc2ccc(O)c(N=CC3=C(O)CC(C)(C)CC3=O)c2)=C(O)C1 7.94 µM [inhibitor, partial curve, poor fit], Cc1ccc(S(=O)(=O)c2nc(Nc3ccccc3C#N)sc2Cl)cc1 7.08 µM [inhibitor, partial curve], Oc1cccc(C(Nc2nccs2)c2ccc3cccnc3c2O)c1 (stereo not drawn) 11.2 µM [activator, partial curve], COc1ccc(Nc2cc(C)c3cc(NC(=O)Cc4c(F)cccc4Cl)ccc3n2)cc1 0.631 µM [activator, full curve, poor fit], O=C(c1c(Cl)nc2sccn12)N(C(=O)c1c(Cl)nc2sccn12)c1ccc(Cl)cn1 12.6 µM [inhibitor, single point], O=[N+]([O-])c1ccc(/C=N/N=C/c2ccc([N+](=O)[O-])o2)o1 35.5 µM [inhibitor, single point], CCOc1ccc(CNS(=O)(=O)c2ccc(-c3cc(C(F)(F)F)on3)s2)cc1 5.62 µM [inhibitor, full curve, poor fit], COc1ccc(-n2cnc3cc(NS(=O)(=O)c4ccccc4)ccc32)cc1 0.0251 µM [inhibitor, full curve, poor fit], Cn1nc(C(F)(F)F)c(-c2cccc(C(F)(F)F)c2)c1NC(=O)Nc1ccc(F)cc1 15.8 µM [inhibitor, partial curve], Cc1ccc(N2C(=O)CS(=O)C(c3ccccc3)C2=O)cc1C (stereo not drawn) 11.2 µM [inhibitor, partial curve], c1ccc(CSc2ccc(-c3ccccn3)nn2)nc1 0.0251 µM [inhibitor, full curve, poor fit], CC(=O)NC(Cc1ccc(F)c(F)c1)C(=O)NC1CCN(c2c(Cc3ccccc3)c(C)nc3ncnn23)CC1 (stereo not drawn) 0.0251 µM [inhibitor, full curve, poor fit], CC(=O)Nc1ccc(S(=O)(=O)N2CCN(CC3CC4C=CC3C4)CC2)cc1 (stereo not drawn) 39.8 µM [inhibitor, single point], O=C(Nc1ccccc1Cl)c1cc2c(-c3ccccc3)nn(-c3ccccc3)c2s1 15.8 µM [inhibitor, partial curve], CC(C)(C)C(=O)Nc1cccc(-c2cc(-c3c(Cl)cccc3Cl)no2)c1 20 µM [inhibitor, partial curve, poor fit], CC(C)c1cc(C(=O)OCC(=O)NC(=O)NCc2ccco2)c(O)c(C(C)C)c1 7.08 µM [inhibitor, full curve], COc1ccc(NN=Nc2nc3c([nH]2)c(=O)n(C)c(=O)n3C)cc1 17.8 µM [inhibitor, partial curve], Cc1ccc(C)c(N2CCN(S(=O)(=O)c3cc(C(=O)Nc4cc(Cl)cc(Cl)c4)ccc3F)CC2)c1 14.1 µM [inhibitor, partial curve]

Potency, inactive:
Cc1cc(C)c[n+](-c2nc3ccccc3nc2C(=C=[N-])C#N)c1, CC(C)[C@H](O)CC[C@@H](C)C1CC[C@H]2C3CC=C4C[C@@H](O)CC[C@]4(C)C3CC[C@]12C (stereo partly drawn)

activity, negative = inhibition, inactive:
CSCC[C@H](NC(=O)CCNC(C)=O)c1nc2ccccc2[nH]1 9.21%, CCSc1nnc(NC(=O)C2Cc3ccccc3CN2S(=O)(=O)CC)s1 (stereo not drawn) -0.777%, C[N+](C)(C)C(Cc1c[nH]c2ccccc12)C(=O)[O-] (stereo not drawn) -1.56%, CCN(CCCNC(=O)c1nn(-c2ccc(OC)c(Cl)c2)c(=O)c2c1c1ccccc1n2C)c1ccccc1 -13.2%, Oc1ccccc1C1CC(c2cccs2)=NC(c2cccc(Br)c2)N1 (stereo not drawn) 8.63%, Nc1c(C(=O)c2ccccc2)sc2nsc(SCCN3CCCC3)c12 -14.3%, COc1ccc(-c2noc(CSc3nnc(-c4ccc(Cl)cc4)n3C)n2)cc1OC 4.87%, Cc1cc(C(=O)N/N=C/c2cccc(Cl)c2Cl)no1 -6.17%, CCOC(=O)CSc1nnc(Cc2ccc(OC)cc2)n1-c1ccccc1 3.71%, COc1ccccc1CNC(=O)CN1C(=O)CCc2cc(S(=O)(=O)N3CCOCC3)ccc21 -0.283%, Cc1cccc(C)c1OCc1n[nH]c(=S)o1 -2.18%, COc1ccc(S(=O)(=O)Nc2cc(C)c(O)c(S(=O)(=O)c3ccccc3)c2)cc1 6.01%, O=C(CN1C(=O)c2ccccc2S1(=O)=O)NCc1ccccc1Cl 4.97%, CCCC(CCC)C(=O)Nc1cccc(-c2cn3cccnc3n2)c1 -5.47%, Cc1ccc(NC(=O)c2cc(N3C(=O)CCC3=O)ccc2N2CCOCC2)cc1 -11%, CCOC(=O)C1CCCN(c2oc(-c3ccc(F)cc3)nc2C#N)C1 (stereo not drawn) 0.257%, Cc1[nH]c2ccccc2c1NC(=O)CN1CCN(Cc2ccc3c(c2)OCO3)CC1 -6.28%, COc1ccc(/C=C/c2nc(C#N)c(N3CCC(C)CC3)o2)cc1OC 14.4%, CC(=O)Nc1nnc(SCC(=O)N2CCCc3ccccc32)s1 3%, CSc1nc2c([nH]c3ccccc32)c(=O)n1-c1ccc(C)cc1 -5.66%, COC(=O)c1ccc(C(/C=C/[C@@H](C)C(=O)NCCN2CCCC2)NC(=O)OCc2ccccc2)cc1 (stereo partly drawn) 3.79%
